Experimental data from the supplement of paper PMC11417369.
The list shows a part of the results.

The sequences below were run on PfSIP2 AP2 domain 1 (GST-tagged) (assay: gcPBM binding intensity (ln(normalized median fluorescence intensity)); higher = stronger DNA binding).
In short: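 In this array assay, P. falciparum DNA-binding domains with a GST tag, expressed in E. coli, were applied for 1 h to primer-extended double-stranded 36-bp intergenic genomic probes and negative controls on an Agilent 4 × 180k array. Bound protein was visualised with Alexa488 anti-GST antibody at 488 nm. Binding intensity is the highest Masliner-normalised natural-log median intensity across replicate spots of either probe orientation.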

Sequence	gcPBM binding intensity (ln)
TTATGGGACTCAAATACATGCAAAAATATTTTTAAG [TGCATGCA_site559]	7
TAAGGTTAAATAATATGTACATATTATTATATATAT [XGTACX_site6953]	7.73
TTAAACCGTGGGAGCACACACACACCCAGACACATA [CACACA_site4337]	6.73
AAATATGTATATATATATATATATATATATATATAT [GTGCAC_negctrl_site335]	9.43
CACGTGTAAATAGTTTTACAATATCTCGATATGTAT [CACACA_negctrl_site785]	6.71
GTAATTATATACATACGTACATACACATATGTATAT [XGTACX_site4149]	7.17
GGATATATGAAACATATTGAAAAACCGTTTAGTACA [CACACA_negctrl_site132]	6.73
TAATTTTTGTAAACAGTCATGGATTCAAAAAAAAAA [CACACA_negctrl_site593]	6.69
TTACTATGTAAACACACATGCAATATATGTTAAGCC [TGCATGCA_site253]	6.91
TTATATGAAAATTATTGTACAATCTATAAAAAAAAT [XGTACX_site4194]	7.14
TAATAATCAAACTATACACACATAAATAAATATATA [CACACA_site156]	6.92
AAGGAAATAAGAAAAAGTACACATAAGTATATAACA [XGTACX_site1173]	7.02
GTAGTAATAAATCTAGTGCATTATATATAACAAAAA [GTGCAC_site9803]	8.27
TTTTTTTCTTTTTTTTGTACTCATACATACTATCAT [XGTACX_site607]	7.13
AAAAATGTGCACACGCGTACACACAAAAAAAGAAAA [XGTACX_site4097]	10
AAAATATATCAAAATAGTACATAATTTTTTAAGAAT [XGTACX_site3515]	6.95
AATAAAGCAATAAATACACACATATATATATATATA [CACACA_site2934]	9.48
TATATAAAAAATAGGTGGTCAACTTAAATATTTTAT [XGTACX_site4495]	7.16
AGTTATGCATCTTAGGTGCTATGCCCAATTTATTTT [GTGCAC_site9977]	9.21
TTGCCTTAAAAAGGAACACACATGCTTTTTTTAGTT [CACACA_site938]	6.68
AAAAAAAAAAAAAATGCACACATATATTTCCATATA [CACACA_site8416]	7.82
AACTTACTCTTTACAAGTACGTAAAAGAAATAGAAA [XGTACX_site1782]	7.15
ATATACATTTTAAATTTTAATGTAACCCATGGGAGA [CACACA_negctrl_site588]	6.84
TGAACCCACAAATCACGTACATATATATACACGTGT [XGTACX_site7739]	7.09
TTTAACAACTATTTCTGTACACATTTTTATATAATT [XGTACX_site4917]	7.22
TATATACGTAATAGTAGTACTTTAAAATGCGGAAAT [XGTACX_site4597]	7.36
TGTACGAGTCGTAGAGTGCAGTCTGGAGAAACGTAC [GTGCAC_site9682]	8.56
ATTTATATTATGAGGAGTACAATACTTATAGATGTA [XGTACX_site7510]	7.2

Sequence	gcPBM binding intensity (ln)
ATAAATAACTTTTAAATACACACGTAAAATATATTG [CACACA_site3302]	6.83
AAAAAAGATATATAAACACACATATTTATATACACA [CACACA_site6866]	6.7
GATAGACACGTGCACACATGCAATACTTTATTCAGT [TGCATGCA_site778]	9.2
ATACCATATAATTATGTGAGAAAATATAATATTCAT [CACACA_negctrl_site310]	6.93
ATTTTCTTAAATAAATGTACATGGCATTAAAAGTAA [XGTACX_site5119]	7.05
TATTTGTATATTCATTCCTGTATTCCCTTTTTTGTA [CACACA_negctrl_site1236]	6.93
AAAAAAAAAAAAAATACACACAAATAATAAAAATAA [CACACA_site1431]	7.61
ATATATATATATGTATGTACATAATATTTTTTTTAT [XGTACX_site5551]	8.87
TGTACGTTTTTTAACACACACACAAAAAAAAAAAAA [CACACA_site6006]	7.11
TTAAATATCCATATTTCACACATTTCGATATATATA [CACACA_site4208]	6.88
ACTGTACTATAAAATACACACATATAAATATAAATA [CACACA_site3009]	7.35
TATTTTAGAGAAAAAAATAAATTACAAAATGTTAGG [CACACA_negctrl_site1645]	6.88
ATAATGTCATAATTATATCCTTTGGCATAAAATAAA [XGTACX_negctrl_site574]	6.69
CCTAAATAAATGGACACACACATATTTATATTTATA [CACACA_site6789]	7.12
GAATGTAAATATTAAAGTACACAGAATATATCTTCA [XGTACX_site8149]	6.94
TATAATATTATATAATGTACGCATTTATTATTTAAA [XGTACX_site8326]	7.12
AAATAAAATCATGAATGTACACAAAAATTATTGCAA [XGTACX_site5691]	7.11
TTTGAAGGAAGGGGGGGAGGGGCCATAACAAAGGAA [GTGCAC_negctrl_site408]	9.2
TATTACAAAAATGTGTTATTATATAAACGTATAGAG [XGTACX_negctrl_site529]	7.1
TTTCTTATATTATATAAATATATAGATGTTAATGGT [CACACA_negctrl_site706]	7.39
AATATAATATAATGCACACATAAAAAAAAAAAAAAA [CACACA_site304]	7.47
TTAATATTAAAATATAAACACACAAAATTCAATTAT [CACACA_site9262]	6.94
AGTAAATATATTATATGTACGTATCATAAAATATAT [XGTACX_site1567]	7.18
ATTTTTTTTTTTTTTTTTAATTTATGTTGTTATTTT [CACACA_negctrl_site944]	6.74
GTAAAATAAATAATATAAATAAAATGAAATGAAACA [TGCATGCA_negctrl_site519]	6.93
AAGTTTAAAGGAATTACACAAACAAGCAAATATATA [CACACA_negctrl_site857]	6.98
ATTATATAATAATAAAGTACTAATATTTTTAAAAGA [XGTACX_site235]	6.94
